# Data reported in the supplement of paper PMC12217912.
# The list shows a part of the results. The full chains were built here from the parent and the listed change. Values near 0.05 are background.
# B1: TEV protease; numbered along this chain (parent)
# chain: MGESLFKGPRDYNPISSSICHLTNESDGHTTSLYGIGFGPFIITNKHLFRRNNGTLVVQSLHGVFKVKDTTTLQQHLVDGRDMIIIRMPKDFPPFPQKLKFREPQREERICLVTTNFQTKSMSSMVSDTSCTFPSGDGIFWKHWIQTKDGQCGSPLVSTRDGFIVGIHSASNFTNTNNYFTSVPKNFMELLTNQEAQQWVSGWRLNADSVLWGGHKVFMVKPEEPFQPVKEATQL
# Variants of: B1
# Experiment: raw area under fraction-flipped curve 0-4 h after induction (AUC4h, not background-subtracted), DNA-recorder readout of cleavage of the substrate (dimensionless); higher = more cleavage of the substrate by the protease variant
# Settings: temperature: 34 °C; time window: 0-4 h after rhamnose induction
# Description: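 In vivo DNA recorder in E. coli TOP10(DE3) ΔrhaA at 34 °C. Each TEVp single-site mutant (parent TEVp 0) is paired with a single-site variant of the 7-mer TEVs (canonical ENLYFQ|S). The substrate sits between flexible linkers in a Bxb1-sfGFP-TEVs-SsrA fusion, so cleavage stabilises Bxb1 and speeds flipping of a recombination array, read by NGS. The value is the raw area under the fraction-flipped curve over 0-4 h after rhamnose induction (AUC4h), with ≥20 reads per time point. It is not background-subtracted; inactive controls average about 0.047.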
# 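Further: Bxb1 expression induced with 0.2% (w/v) L-rhamnose at OD600 near 0.5, cultures sampled hourly, flipped fraction per protease–substrate barcode pair counted by paired-end Illumina sequencing.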
Variant,area with substrate ENLYAQS,area with substrate ENLYCQS,area with substrate ENLYDQS,area with substrate ENLYEQS,area with substrate ENLYGQS,area with substrate ENLYHQS,area with substrate ENLYIQS,area with substrate ENLYMQS,area with substrate ENLYNQS,area with substrate ENLYPQS,area with substrate ENLYQQS,area with substrate ENLYSQS,area with substrate ENLYTQS,area with substrate ENLYWQS,area with substrate ENLYYQS,area with substrate ENLYKQS,area with substrate ENLYLQS,area with substrate ENLYRQS,area with substrate ENLYVQS
MGESLFKGPRDYNPISSSICHLTNESDGHTTSLYGIGFGPFIITNKHLFRRNNGTLVVQSLHGVFKVKDTTTLQQHLVDGRDMIIIRMPKDFPPFPQKLKFREPQREERICLVTTNFQTKSMSSMVSDTSCTFPSGDGIFWKHWIQTKDGQCGSPLVSTRDGFIVGIHSASNFTNTNNYFTSVPKNFMELLTNQEAQQWVSGWRLNADSVLWGGHKVFMVKPEEPFQPVWEATQL [K230W],0.078,0.0721,0.0605,0.0537,0.0628,0.0661,0.13,0.0887,0.0693,0.0716,0.0658,0.0436,0.072,0.0721,0.0463,,,,
MGESLFKGPRDYNPISSSICHLTNESDGHTTSLYGIGFGPFIITNKHLFRRNNGTLVVQSLHGVFKVKDTTTLQQHLVDGRDMIIIRMPKDFPPFPQKLKFREPQREERICLVTTNFQTKSMSSMVSDTSCTFPSGDGIFWKHWIQTKDGQCGSPLVSTRDGFIVGIHSASNFTNTNNYFTSVPKNFMELLTNQEAQQWVSGWRLNADSVLWGGHKVLMVKPEEPFQPVKEATQL [F218L],0.0775,,,0.0598,0.056,0.0755,,0.0745,0.0616,0.0603,0.0641,0.0576,,0.0677,0.0616,0.112,0.0502,0.0455,0.126
MGESLFKGPRDYNPISSSICHLTNESDGHTTSLYGIGFGPFIITNKHLFRRNNGTLVVQSLHGVFKVKDTTTLQQHLVDGRDMIIIRMPKDFPPFPQKLKFREPQREERICLVTTNFQTKSMSSMVSDTSCTFPSGDGIFWKHWIQTKDGQCGSPLVSTRDGFIVGIHSASNFTNTNNYFTSVPKNFMELLTNQEAQQWVSGWRLNADSVLWGGHKVFMVKPCEPFQPVKEATQL [E223C],0.0781,0.0758,,0.0685,0.0637,0.0663,0.11,0.0839,0.0708,0.0673,0.0722,0.0721,0.0833,0.0566,0.0597,0.0543,0.0724,0.0661,0.119
MGESLFKGPRDYNPISSSICHLTNETDGHTTSLYGIGFGPFIITNKHLFRRNNGTLVVQSLHGVFKVKDTTTLQQHLVDGRDMIIIRMPKDFPPFPQKLKFREPQREERICLVTTNFQTKSMSSMVSDTSCTFPSGDGIFWKHWIQTKDGQCGSPLVSTRDGFIVGIHSASNFTNTNNYFTSVPKNFMELLTNQEAQQWVSGWRLNADSVLWGGHKVFMVKPEEPFQPVKEATQL [S26T],0.0794,0.0834,0.0703,0.0693,0.0757,0.0699,0.115,0.08,,0.0684,,0.0596,,0.0535,0.0593,0.0878,,0.0556,
MGESLFKGPRDYNPISSSICHLTNESDGHTTSLYGIGFGPFIITNKHLFRRNNGTLVVQSLHGVFKVKDTTTLQQHLVDGRDMIIIRMPKDFPPFPQKLKFREPQREERICLVTTNFQTKSMSSMVSDTSCTFPSGDGIFWKHWIQTKDGQCGGPLVSTRDGFIVGIHSASNFTNTNNYFTSVPKNFMELLTNQEAQQWVSGWRLNADSVLWGGHKVFMVKPEEPFQPVKEATQL [S154G],0.102,,0.0608,0.0651,0.0642,,0.101,,0.0645,,0.0158,,,0.0752,0.0601,0.0589,,0.0619,0.119
MGESLFKGPRDYNPISSSICHLTNESDGHTTSLYGIGFGPFIITNKHLFRRNNTTLVVQSLHGVFKVKDTTTLQQHLVDGRDMIIIRMPKDFPPFPQKLKFREPQREERICLVTTNFQTKSMSSMVSDTSCTFPSGDGIFWKHWIQTKDGQCGSPLVSTRDGFIVGIHSASNFTNTNNYFTSVPKNFMELLTNQEAQQWVSGWRLNADSVLWGGHKVFMVKPEEPFQPVKEATQL [G54T],0.0616,0.0769,,0.0582,0.0614,0.0728,0.0819,0.0566,0.0655,0.0614,,0.0527,0.0628,0.0614,,0.0722,0.0641,0.0529,0.0777
MGESLFKGPRDYNPISSSICHLTNESDGHTTSLYGIGFGPFIICNKHLFRRNNGTLVVQSLHGVFKVKDTTTLQQHLVDGRDMIIIRMPKDFPPFPQKLKFREPQREERICLVTTNFQTKSMSSMVSDTSCTFPSGDGIFWKHWIQTKDGQCGSPLVSTRDGFIVGIHSASNFTNTNNYFTSVPKNFMELLTNQEAQQWVSGWRLNADSVLWGGHKVFMVKPEEPFQPVKEATQL [T44C],0.0535,0.0732,0.069,0.0552,0.0776,0.0608,0.0818,0.0799,0.0621,0.0637,0.0579,0.0849,0.0603,,0.048,,0.0888,0.0619,0.101
MEESLFKGPRDYNPISSSICHLTNESDGHTTSLYGIGFGPFIITNKHLFRRNNGTLVVQSLHGVFKVKDTTTLQQHLVDGRDMIIIRMPKDFPPFPQKLKFREPQREERICLVTTNFQTKSMSSMVSDTSCTFPSGDGIFWKHWIQTKDGQCGSPLVSTRDGFIVGIHSASNFTNTNNYFTSVPKNFMELLTNQEAQQWVSGWRLNADSVLWGGHKVFMVKPEEPFQPVKEATQL [G2E],0.066,0.0729,,0.0553,0.0696,0.076,0.108,0.0852,0.0716,0.081,,0.0609,,0.0618,,0.0739,,0.044,0.105
MGESLFKGPRDYNPISSSICHLTNESDGHTTSLYGIGFGPFIITNKHLFRRNNGTLVVQSLHGVFKVKDTTTLQQHLVDGRDMIIIRMPKDFPPFPQKLKFREPQREERICLVTTNFQTKSMSSMVSDTSCTFPSGDGIFWKHWIQTKDGQCGSPLVSTRDGFIVGIHSASNFTNTNNYFYSVPKNFMELLTNQEAQQWVSGWRLNADSVLWGGHKVFMVKPEEPFQPVKEATQL [T181Y],0.0689,,0.0586,0.069,0.0542,0.0579,0.0593,0.0656,0.0554,0.0723,0.0354,0.0629,0.0341,,0.0594,0.0391,0.0582,0.0602,0.051
